Where “and” joins values, the source holds several entries; their conditions need not be identical. Equal values may be shown once. Blank lines part the entries; values can stand above or below the binder they belong to.
Biological target: T1, FlAsH-tagged Met1-diUb (UniProt P0CG48 partial chain; P0CG48 partial chain, Lumio Green (FlAsH) on the C-terminal WCCPGCC motif)
T1 construct: ubiquitin, distal moiety, residues 1-76, joined by Gly76 in a peptide bond to Met1 of the proximal moiety; ubiquitin, proximal moiety; a C-terminal WCCPGCC motif replaces aa 72-76, so that residues 1-71 are left; Construct described in Ye et al., 2011; Chain: Ub(1-76)-Ub(1-71)-WCCPGCC; also called FlAsH-tagged Met1-diUb WT; Met1-linked diUb; source: expressed from pET17 plasmid, purified as …
Test: fluorescence polarisation; FlAsH-tagged diUb fixed (10 μl of 100 nM plus 10 μl protein), OTULIN C129A variants serially diluted; 20 mM Tris pH 7.4, 100 mM NaCl, 5 mM β-mercaptoethanol, 0.1 mg/ml BSA; one-site binding model; triplicate
Conditions: both partners purified

B1: OTULIN ([…]) C129A (enzyme)
chain: not shown
notes: also called full-length OTULIN C129A; OTULIN C129A; source: E. coli Rosetta2 (DE3) pLacI, purified (Ni2+ resin, 3C protease, SEC)
Kd: 178 nM and < 112 nM

B4: OTULIN C129A W96A (enzyme)
chain: not shown
notes: source: E. coli Rosetta2 (DE3) pLacI, purified (Ni2+ resin, 3C protease, SEC)
binding result: binds

Now from value to binder:

binding result: binds
B2: OTULIN C129A E314R (enzyme)
chain: not shown
notes: as for B4

binding result: binds
B3: OTULIN C129A L259E (enzyme)
chain: not shown
notes: as for B4

From PMC3690481, “OTULIN Antagonizes LUBAC Signaling by Specifically Hydrolyzing Met1-Linked Polyubiquitin” (Cell, 2013)
